According to PMC5753878:
No constants are given. Whether binding was seen depends on the method and setting. Binding seen in cells or lysates may run through a third protein. Some results given as binding are weak or reduced against the parent protein; the word gives no strength. Where a sequence is shown, tags or fusion partners need not be part of it.

B1: Est1-Y136D-(myc)12 (protein, UniProt P17214 1-699)
chain: MDNEEVNEECMRLFFKNARAHLDKHLTSRLTCDENAYITFRCFLDGIHRKSTRFLEELLLKQENMYHNNNYERINDSVIPLVLKLLWLQIHEPTLQWFEHWFHDIMRLSNRRKFRVFRIFQKKMIQFFKITHRYYDDIIEHLCAKYDMNSVISNALFAKLNLMQYTDGLSTHEKIILNTSNPLTFSIVISLQRCVINLGSTHFYKTLLNKPSNKPKSVEGFEKSIRYLNIASLYLPAVGDTYFQRAKIYLITGKFSLYFFELVRGALVRIPSKCALNNLKDFILTPDFPERRRLMKKLAILVSKDLKGEKSFFEGQIVLQFLSIVEHTLVPQSWNASRASNCWLLKEHLQMAALKYHSGNINVILENLAATMGSFDLMFTTRKSKEQKNKLKYADLSERQVFFLDLSFDFIANIIDVVIKPSWQKNMEDFRYLAIIRLLMCWIKSYRSILQYTHRHRKFCTSFALLLNDLINSPLNCSGNIYSHRPKRSYLFREDIIFREFSCINFALTDFNDDYVYDSPDMINNIIGCPTLTKVLSPKEECVLRIRSIIFSGMKFLEKNDTGVIWNASKYKFDLISPNIKIKRQIALSEISSKINVKTQQERVVSSRKVEAKRDEQQRKRAGKIAVTELEKQFANVRRTKKLSPLPEKDGVSSELVKHAASRGRKTITGPLSSDFLSYPDEAIDADEDITVQVPDTPT
B2: C-terminal domain of Est1 (amino acids 340-699) with (myc)12 (domain or fragment, UniProt P17214 340-699)
chain: SNCWLLKEHLQMAALKYHSGNINVILENLAATMGSFDLMFTTRKSKEQKNKLKYADLSERQVFFLDLSFDFIANIIDVVIKPSWQKNMEDFRYLAIIRLLMCWIKSYRSILQYTHRHRKFCTSFALLLNDLINSPLNCSGNIYSHRPKRSYLFREDIIFREFSCINFALTDFNDDYVYDSPDMINNIIGCPTLTKVLSPKEECVLRIRSIIFSGMKFLEKNDTGVIWNASKYKFDLISPNIKIKRQIALSEISSKINVKTQQERVVSSRKVEAKRDEQQRKRAGKIAVTELEKQFANVRRTKKLSPLPEKDGVSSELVKHAASRGRKTITGPLSSDFLSYPDEAIDADEDITVQVPDTPT

Assays:
[1] = target: T1, Sme1 tagged with (FLAG)3 (S. cerevisiae) (UniProt Q12330); test: co-IP; anti-FLAG IP of Pop1 or Sme1 tagged with (FLAG)3 from yeast extracts, Est1 tagged with (myc)12
T1 sequence: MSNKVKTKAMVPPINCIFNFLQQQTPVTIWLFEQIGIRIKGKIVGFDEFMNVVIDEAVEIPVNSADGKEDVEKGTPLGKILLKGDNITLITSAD

[2] = target: T2, Cdc13 tagged with (FLAG)3 (S. cerevisiae) (UniProt P32797); test: co-IP; anti-FLAG IP of Cdc13 tagged with (FLAG)3 from yeast extracts, Est1 tagged with (myc)12
T2 sequence: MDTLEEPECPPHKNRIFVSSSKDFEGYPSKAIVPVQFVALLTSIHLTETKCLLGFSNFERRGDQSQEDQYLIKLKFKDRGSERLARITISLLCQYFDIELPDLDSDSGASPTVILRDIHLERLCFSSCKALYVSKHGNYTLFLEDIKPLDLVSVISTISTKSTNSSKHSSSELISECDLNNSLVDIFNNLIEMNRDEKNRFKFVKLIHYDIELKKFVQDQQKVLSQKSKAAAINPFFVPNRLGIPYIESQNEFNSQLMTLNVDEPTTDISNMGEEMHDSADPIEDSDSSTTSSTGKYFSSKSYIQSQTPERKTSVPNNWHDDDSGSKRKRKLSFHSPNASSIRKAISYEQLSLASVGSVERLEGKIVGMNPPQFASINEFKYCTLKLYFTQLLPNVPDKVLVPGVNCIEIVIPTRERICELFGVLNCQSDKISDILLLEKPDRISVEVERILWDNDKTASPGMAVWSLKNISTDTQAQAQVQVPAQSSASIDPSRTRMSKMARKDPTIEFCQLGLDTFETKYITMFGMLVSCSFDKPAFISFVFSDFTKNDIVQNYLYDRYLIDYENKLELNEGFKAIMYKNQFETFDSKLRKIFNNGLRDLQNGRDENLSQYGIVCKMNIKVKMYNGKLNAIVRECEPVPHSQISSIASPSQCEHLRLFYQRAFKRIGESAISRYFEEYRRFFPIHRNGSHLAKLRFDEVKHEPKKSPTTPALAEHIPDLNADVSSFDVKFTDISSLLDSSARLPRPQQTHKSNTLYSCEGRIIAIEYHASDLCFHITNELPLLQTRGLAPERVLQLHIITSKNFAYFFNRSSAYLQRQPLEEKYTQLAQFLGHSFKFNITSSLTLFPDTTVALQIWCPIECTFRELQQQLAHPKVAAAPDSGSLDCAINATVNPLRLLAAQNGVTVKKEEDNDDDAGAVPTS

[3] = target: T3, (FLAG)3-(myc)12-Est2 (S. cerevisiae) (UniProt Q06163); test: co-IP; anti-FLAG IP of (FLAG)3-(myc)12-Est2 from yeast whole-cell extracts, anti-myc western for Est1 and Est2; TMG200 (10 mM Tris-HCl pH 8, 1 mM MgCl2, 5% glycerol, 200 mM NaCl2) + 0.1% Tween20, 2 hr at 4°
T3 sequence: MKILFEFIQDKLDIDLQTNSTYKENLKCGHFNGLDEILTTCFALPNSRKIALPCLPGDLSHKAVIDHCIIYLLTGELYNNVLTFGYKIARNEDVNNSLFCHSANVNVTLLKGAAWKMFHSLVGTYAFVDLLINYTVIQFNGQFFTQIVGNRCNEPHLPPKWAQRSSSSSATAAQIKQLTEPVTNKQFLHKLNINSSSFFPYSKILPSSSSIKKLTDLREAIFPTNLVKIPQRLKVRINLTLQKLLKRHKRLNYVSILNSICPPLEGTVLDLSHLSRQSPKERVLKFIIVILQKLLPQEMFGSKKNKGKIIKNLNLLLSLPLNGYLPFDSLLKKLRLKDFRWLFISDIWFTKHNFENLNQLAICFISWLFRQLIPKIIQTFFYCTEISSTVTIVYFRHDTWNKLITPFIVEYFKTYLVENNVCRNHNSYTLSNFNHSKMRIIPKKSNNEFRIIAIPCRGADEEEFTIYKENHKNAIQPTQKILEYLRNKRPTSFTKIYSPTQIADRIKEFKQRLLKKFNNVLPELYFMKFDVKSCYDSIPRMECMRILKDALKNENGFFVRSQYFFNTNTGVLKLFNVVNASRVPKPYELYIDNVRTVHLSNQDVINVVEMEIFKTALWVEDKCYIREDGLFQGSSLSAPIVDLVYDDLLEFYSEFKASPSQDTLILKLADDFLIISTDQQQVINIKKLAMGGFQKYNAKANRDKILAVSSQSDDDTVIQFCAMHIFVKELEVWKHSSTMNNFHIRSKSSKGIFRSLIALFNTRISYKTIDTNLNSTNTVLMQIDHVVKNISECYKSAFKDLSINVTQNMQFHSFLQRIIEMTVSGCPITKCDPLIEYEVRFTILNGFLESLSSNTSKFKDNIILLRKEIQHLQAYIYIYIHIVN

Row | Binder | binding [1] | binding [2] | binding [3]
1 | B1 | no binding | binds | –
2 | B2 | – | – | no binding
